Whole data set: some 4,500 sequences, median “median log2 fold change of GCK-ALFA target abundance (FLAG IP / Myc IP barcode read proportion)” near 0.078, cut for the lowest 2% near -0.6. Some of the results follow.
B1: GBRAP_160_4042 (protein)
chain: KEKYEKLKKFAEEEFEEAKEFVEGVTVEEAANILDVTIGEIIMEAEELGIDDEELHDKIAEIGDKAVAELLANPDLTEEEIKAIIEKAREEVLKAIEEAK
B2: GBRAP_11_2886 (protein)
chain: KKEVLKKLAELAKKIAELIEKLLKEGTDDEELLKEIEKLLEELEELTKKHADEGEKKLVEIAKELYKKALEDPENREEYLKELLAAVRVLEGQFLLEAEE
B3: GBRAP_125_3018 (protein)
chain: SEEELAEALGLIARRFGYSEAEIAELQRLAREHGLKGTLIALALSLGWEELAELLEKLSEEQVAEVVREVAEALRANPELTPEELKELMLEVAKRALEEA
B4: GBRAP_128_3283 (protein)
chain: MNEELIKKAKELIKKIVEGPLEEVPKLTKELVELMKKMSEEELDIVVDFFEEEAKKMSEEKLEAVMDTLRELRPTMDPLVQNYVADMMTILGEQLLELEE
B5: GBRAP_11_2696 (protein)
chain: KKEELKKAAELARKLAELLERLLAAGPDDEELLKEIRELAEELLKLAEKYGDKGIQTLAKILKELLEEAEADPANREEYLRQALAAARVLEGQYLLEIEE
B6: GBRAP_184_5213 (protein)
chain: TVVREAVTATTAEEAIAKAEAVVAAAQAAGKKLVLTVFAENMSLEEIREVMEHLSALKDAGRIEDATLVVTDDKSEEEIDELIAAADEYGIRLVLALPDE
B7: GBRAP_35_5532 (protein)
chain: DSDEEIAEMLLNTMEDIVLALPDVSPEQQEKLAKHLIRLAEDFIKLKTKSKELIERLIEILEEAIKIIKESDLPKEQQEELIKKLEELKEEAEKLLKEVK
B8: GBRAP_52_6224 (protein)
chain: MEEEAERLAKEILKTVKEKGVEAAVELLKEIAATHSPELVIAVLKKLVELLKDESAETAEAVLDALIAAEDALIAAGVPEEDVEDAIAAAAAVAVELLKK
B9: GBRAP_128_3279 (protein)
chain: PDPAVVARARAFVAAIAAAGPEEARALAREFADWLGSISEAEAEQAVAEVEKELHRLSVEHLEILADVLEEKRPEYSPGKANLVADLQVAALNEAEEKEE
B10: GBRAP_26_5456 (protein)
chain: LEEVIDEQRDKILALFDEVLDPEKAAALKTEVLTEAEEIEEVVEAHPNDAEKIKAAIEEAEEDILEMMKELEVPEEAFKKLSEKVEEEAEKIKAAVDAKA
B11: GBRAP_52_5863 (protein)
chain: MEERIRAALERGLALVKAGRLEEARALAKELVASLTEEEVEVLTRVAAELALAAAPEDLDAVWELAELIAEALEEAGFPEELVTLFEDEVGAAIAKVEAA
B12: GBRAP_83_6923 (protein)
chain: KEHITVAANSDNIDEAFDAAIDLHKEEGYEVSIDVIVKKEDIPKLLESFEKLAKEGVETELRISLLGATKEEAEKLKKELEEIAKKYGVNIKVEVEAIEL
B13: GBRAP_166_4921 (protein)
chain: SMEEKVEEAKERLRAVIAEERADPRMTPAQITVALADELAEILDEEKDEETRMKIVRAGLEIAKEAGLDPERLARLTAGLYGFSDEEIEKIEKIVKEILA
B14: GBRAP_39_5700 (protein)
chain: EKEEELENRFSYYEAVGAKYMYENNISLEEAIKEAKKILDKISEEYPELKPLVDELKDILENGNEELKIAAIGIAKKYEEGMPLEEFKEDATALIEYSKS
B15: GBRAP_11_2674 (protein)
chain: QKEKLEEAARLAEELAAAVQALIAAGVTDAALRAKAGALLDELAALVEAHADEASKRDVAVARELWDALLADPANAAAYAEQLLAAARVLEGNFLLEIEE
B16: GBRAP_160_4493 (protein)
chain: SAALAEAQAAVDATLAELADALAEDDTAGAAGIAAAYAGDIVQEARELGVVTDEQADELLALAEAGGAAIVAAKAAGPAAMAAATAATRAALHAFLKKAA
B17: GBRAP_11_2618 (protein)
chain: KKEILKEKAKLAEEAAKAVEELLKKGVDDEELLKKIEKLLKELEELVKKHGSEADKKEVEIAKELFKKMKEDKENKEKYAEELLAALRVLAGNYLLEIEE
B18: GBRAP_80_6756 (protein)
chain: ARAALEAALAALEALDPELGARLREVLERALEAGVPVETVLRLVEALVELAKLDLEKARELAEEFIEELEEELEAGDLEGAIATLVDYASEALLAVEELE
B19: GBRAP_160_4793 (protein)
chain: SERVEKVAEIFREEGERALEMAEGETPEERVAVFDVELGAAIMEAIDLGLLNDEEEDIAIEVRDELVAAIRANPDLTPEELRALLEEQVERLRERLEKLE
B20: GBRAP_83_6929 (protein)
chain: KEKIVVAANDDTIDEAFEAAIDLTKEEGYEVTVEVIITPESFEKLLEAFEKMAKAGWEGKLEIYALGATEEEVEELKKKLEEIAKKYGVNIEIEVINEEL
B21: GBRAP_125_3053 (protein)
chain: DLEAAIAALAALARLLGLSPEEVAELAELARRYGVKGTLYALLMAEGAEDLADLVAELTEEEVIAVLERLAAWLAAHPDATADEALAQLRALAEEALARR
B22: GBRAP_160_4701 (protein)
chain: SATAKKLKEYVEETFKEAKKLIKGETREQRAIIVEGAIGEILMELAENPEATDELEDEVDKIGDELIAQIKADKNITDEELKALIDKAVEEMKKAIDKHL
B23: GBRAP_52_6229 (protein)
chain: MEEEARRKVEEMLALVKAGDLEGARALAREIAETWSDEELEVFIEELARLAEASPLEEEPYWEKLAEIVAEVLEELGRDEVLVDDLEARVAAALYKRRQA
B24: GBRAP_139_3759 (protein)
chain: SEEEKVEELAKKLVEAAKEGNEEELKKLAKEIASLSEENQKKAIKKVAELAKSLTFEQVEKIRDVLIETFLTERKNEDLATYAEGEFNGTLALVAYREEQ
B25: GBRAP_128_3173 (protein)
chain: SIEEVKEETKELMEKIKNSSPEEAKKIAKELFERLLTLSLEEAEAAVEVILEMLPELSAEKLKIIADEARKYRPKATPEKAELVAEVEVEALNLEEELEE
B26: GBRAP_128_3319 (protein)
chain: MDEALLKEAEKLAKAMQQADLETLAVLTRRLVALLGQADAEQREKIAEIFRKALEQLDAEKLDVVADTLRAERPELDPEAARVAAGLEVEALNLAEEKEE
B27: GBRAP_9_7170 (protein)
chain: EEEKKKKIKEVVLEAFEEILKVVPEDKKPLVEKLKKEAKEELEKALADPNTTLEEFKKLAKEQLEKLVKEIKEAVDPETAAAVEAIALTAEVEIDEILEE
B28: GBRAP_160_4414 (protein)
chain: SELIEEVRRLFEELRELVLELLEEGERAEALAAVRVGAGEILLYVDEDPRVSEEAEEKIAEVLDELVAEVEANPDASPEEVAKLIEEAEEKVIEILKENL
B29: GBRAP_128_3223 (protein)
chain: STEELKEKVRELLEKIKESNKEEAKKLAKELAELIKNSTVEEAEAMLEVIEELAPELSEEDLEILIDELEAAAKEVDDEVALELLDAAVVLSEELLEKEE

Target: GABARAP, O95166
Test: median log2 fold change of GCK-ALFA target abundance (FLAG IP / Myc IP barcode read proportion) (log2 ratio); each designed protein is fused to an ALFA-tag nanobody in HEK293 cells to bring the named protein to FLAG-tagged glucokinase (GCK); Myc marks an untargeted standard; higher = target protein stabilised (more abundant)
Settings: target protein: 3xFLAG-MCP-GCK-ALFA reporter; HEK293 landing pad (RPLP)
Procedure, shortened: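 Sequencing of reverse-transcribed, amplified circular RNA barcodes from anti-FLAG and anti-Myc immunoprecipitates provided the readout for an ALFA-nanobody-fused binder library recombined into HEK293 landing-pad cells. Those cells were induced with 2 μg mL^−1 doxycycline, transfected with a plasmid expressing a FLAG-tagged target and a Myc-tagged standard, and lysed after 48 h. Target abundance is the per-binder median log2 ratio of FLAG to Myc barcode read proportions. Only barcodes at a proportion of ≥10^−7 in both replicates and binders with ≥3 barcodes per replicate were kept, with a 10^−6 pseudocount added before the two replicates were pooled.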

Sequence of GABARAP, O95166 (O95166 whole entry, the tested form may be a part): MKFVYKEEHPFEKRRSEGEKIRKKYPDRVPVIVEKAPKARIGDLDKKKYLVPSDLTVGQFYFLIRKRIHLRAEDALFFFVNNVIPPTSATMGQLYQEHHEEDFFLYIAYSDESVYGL

| Binder | median log2 fold change |
| --- | --- |
| B1 | -0.0593 |
| B2 | 0.0317 |
| B3 | 0.388 |
| B4 | -0.282 |
| B5 | 0.0786 |
| B6 | -0.103 |
| B7 | -0.0834 |
| B8 | 0.149 |
| B9 | 0.0749 |
| B10 | 0.0449 |
| B11 | 0.0457 |
| B12 | 0.0512 |
| B13 | 0.163 |
| B14 | 0.353 |
| B15 | 0.218 |
| B16 | -0.322 |
| B17 | 0.235 |
| B18 | -0.0333 |
| B19 | 0.0962 |
| B20 | -0.01 |
| B21 | -0.187 |
| B22 | 0.0431 |
| B23 | 0.0132 |
| B24 | 0.364 |
| B25 | 0.151 |
| B26 | 0.112 |
| B27 | 0.346 |
| B28 | -0.165 |
| B29 | 0.0373 |
